Residue numbers refer to the chain shown, from its start.
B1: CTLA4_anti OX40L fusion protein 98C01 (Fc fusion)
heavy: [sequence of about 120 residues not given]EPKSSDKTHTCPPCPAPPVAGPSVFLFPPKPKDTLMISRTPEVTCVVVDVSHEDPEVKFNWYVDGVEVHNAKTKPREEQYNSTYRVVSVLTVLHQDWLNGKEYKCAVSNKALPSSIEKTISKAKGQPREPQVYTLPPSREEMTKNQVSLTCLVKGFYPSDIAVEWESNGQPENNYKTTPPVLDSDGSFFLYSKLTVDKSRWQQGNVFSCSVMHEALHNHYTQKSLSLSPGAGGGGSGGGGSGGGGSQVQLQESGPGLVKPSETLSLTCTVSGGSISSSSYYWGWIRQPPGKGLEWIGGIGSVDYSGNTYYKPSLKSRVTISVDTSKNQFSLKLSSVTAADTAVYHCARHRGIYFFDYWGQGTLVTVSSASTKGPSVFPLAPSSKSTSGGTAALGCLVKDYFPEPVTVSWNSGALTSGVHTFPAVLQSSGLYSLSSVVTVPSSSLGTQTYICNVNHKPSNTKVDKRVEPKSC
light: SYELTQPPSVSVALGQTARITCGGNNIENKNVHWYQQKPGQAPVLVIYRDSNRPSGIPERFSGSNSGNTATLSINRAQAGDEADYYCQVWDSNTVVFGGGTKLTVLGQPKAAPSVTLFPPSSEELQANKATLVCLISDFYPGAVTVAWKADSSPVKAGVETTTPSKQSNNKYAASSYLSLTPEQWKSHKSYSCQVTHEGSTVEKTVAPTECS
notes: also called 98C01(1); 98C01 (1)
B2: CTLA4_anti OX40L fusion protein 98E10 (Fc fusion)
heavy: [sequence of about 120 residues not given]EPKSSDKTHTCPPCPAPPVAGPSVFLFPPKPKDTLMISRTPEVTCVVVDVSHEDPEVKFNWYVDGVEVHNAKTKPREEQYNSTYRVVSVLTVLHQDWLNGKEYKCAVSNKALPSSIEKTISKAKGQPREPQVYTLPPSREEMTKNQVSLTCLVKGFYPSDIAVEWESNGQPENNYKTTPPVLDSDGSFFLYSKLTVDKSRWQQGNVFSCSVMHEALHNHYTQKSLSLSPGAGGGGSGGGGSGGGGSQLQLQESGPGLVKPSETLSLTCTVAGASVSSSSYYWGWIRQSPGKGLEWIGTINYGGSTYHNPSLKRRVTVSVDTSKNQFSLKLTSVTAADTAVYYCARHRGIYHFDYWGQGTLVTVSSASTKGPSVFPLAPSSKSTSGGTAALGCLVKDYFPEPVTVSWNSGALTSGVHTFPAVLQSSGLYSLSSVVTVPSSSLGTQTYICNVNHKPSNTKVDKRVEPKSC
light: B1 light with P8L, K38M, S73T, L103V
notes: also called 98E10(1); 98E10 (1)
B3: CTLA4_anti OX40L fusion protein 95B06 (Fc fusion)
heavy: [sequence of about 120 residues not given]EPKSSDKTHTCPPCPAPPVAGPSVFLFPPKPKDTLMISRTPEVTCVVVDVSHEDPEVKFNWYVDGVEVHNAKTKPREEQYNSTYRVVSVLTVLHQDWLNGKEYKCAVSNKALPSSIEKTISKAKGQPREPQVYTLPPSREEMTKNQVSLTCLVKGFYPSDIAVEWESNGQPENNYKTTPPVLDSDGSFFLYSKLTVDKSRWQQGNVFSCSVMHEALHNHYTQKSLSLSPGAGGGGSGGGGSGGGGSEVQLLESGGGLVQPGGSLRLSCAASGFTFSSYAMTWVRQAPGKGLEWVSDISGSGGSTKYADSVKGRFTISRDNPKNTLYLQMNSLRAEDTAVYYCAKDLGFYSTWDTDYWGQGTLVTVSSASTKGPSVFPLAPSSKSTSGGTAALGCLVKDYFPEPVTVSWNSGALTSGVHTFPAVLQSSGLYSLSSVVTVPSSSLGTQTYICNVNHKPSNTKVDKRVEPKSC
light: DMQMTQSPSSLSASVGDRVTITCRASQGIRNDLDWYQQKPGKVPKRLIHAASSLQSGVPSRFSGSGSGTEFTLTISSLQPEDFVTYYCLQHNTYPWTFGQGTKLEIKRTVAAPSVFIFPPSDEQLKSGTASVVCLLNNFYPREAKVQWKVDNALQSGNSQESVTEQDSKDSTYSLSSTLTLSKADYEKHKVYACEVTHQGLSSPVTKSFNRGEC
B4: CTLA4_anti OX40L fusion protein 30F02 (Fc fusion)
heavy: [sequence of about 120 residues not given]EPKSSDKTHTCPPCPAPPVAGPSVFLFPPKPKDTLMISRTPEVTCVVVDVSHEDPEVKFNWYVDGVEVHNAKTKPREEQYNSTYRVVSVLTVLHQDWLNGKEYKCAVSNKALPSSIEKTISKAKGQPREPQVYTLPPSREEMTKNQVSLTCLVKGFYPSDIAVEWESNGQPENNYKTTPPVLDSDGSFFLYSKLTVDKSRWQQGNVFSCSVMHEALHNHYTQKSLSLSPGAGGGGSGGGGSGGGGSQLQLQESGPGLVKPSETLSLTCTVSGASISSSNHYWGWGWIRQPPGKGLEWIGSIYYSGNTYYNPSLKSRVTISVDTSKNQFSLKLSSVTAADTAVYYCARHRGSYFFDHWGQGTLVTVSSASTKGPSVFPLAPSSKSTSGGTAALGCLVKDYFPEPVTVSWNSGALTSGVHTFPAVLQSSGLYSLSSVVTVPSSSLGTQTYICNVNHKPSNTKVDKRVEPKSC
light: B1 light with E3V, P8L, E28G, N29D, Y48S, S73T, N75S, A83S, N93S, L103V
notes: also called 30F02 (1)

Legend:
[1] = target: T1, recombinant human OX40L protein (R&D Systems, cat. #1054-OX) (human, UniProt P23510 51-183); test: cell-based or functional assay
T1 sequence: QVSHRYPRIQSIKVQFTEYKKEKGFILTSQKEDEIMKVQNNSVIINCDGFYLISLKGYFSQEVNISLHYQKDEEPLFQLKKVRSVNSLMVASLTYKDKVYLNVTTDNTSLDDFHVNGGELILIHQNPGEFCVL

AVI-GST-His6-hOX40L = target: T2, AVI-GST-His6-hOX40L (human, UniProt P23510 51-183); test: cell-based or functional assay
T2 sequence: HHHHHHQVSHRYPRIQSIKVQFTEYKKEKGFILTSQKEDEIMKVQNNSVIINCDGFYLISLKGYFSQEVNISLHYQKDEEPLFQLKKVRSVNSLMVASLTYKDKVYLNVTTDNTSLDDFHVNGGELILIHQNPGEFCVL

[2] = target: T1, recombinant human OX40L protein (R&D …); test: SPR steady state affinity to human OX40L; first of two numbers in the cell
Method: (§1) Recombinant OX40L proteins (human OX40L protein, R&D systems, cat. #1054-OX; cynomolgus monkey OX40L, Novoprotein cat. #CP72) were immobilized onto Biacore CM5 sensor chips and anti-OX40L antibodies were bound to this surface at a range of concentrations. The response at steady state was measured with a Biacore T200 instrument (GE Healthcare) and plotted against the concentration of antibody and fit to a 1:1 binding model. The steady state KD was determined as the antibody concentration at a response equal to half the maximal response (Rₘₐₓ).

[3] = target: T1, recombinant human OX40L protein (R&D …); test: SPR steady state affinity to human OX40L; second of two numbers in the cell
Method: as §1

[4] = target: T3, full-length human OX40L on the cell surface (human, UniProt P23510 1-183); test: cellular binding to human OX40L (flow cytometry; cells not given)
T3 construct: also called CHO-S-huOX40L; OX40L on MDDCs
T3 sequence: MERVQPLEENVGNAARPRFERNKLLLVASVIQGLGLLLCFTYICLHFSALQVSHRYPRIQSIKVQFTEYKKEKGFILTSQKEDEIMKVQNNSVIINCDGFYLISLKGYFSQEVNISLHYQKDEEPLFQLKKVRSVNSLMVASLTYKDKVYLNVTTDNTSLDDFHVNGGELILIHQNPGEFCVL

[5] = target: T1, recombinant human OX40L protein (R&D …); test: SPR steady state, Biacore T200; OX40L immobilised on CM5, fusion protein in solution
Method: as §1

[6] = target: T1, recombinant human OX40L protein (R&D …); test: SPR steady state affinity to human OX40L
Method: as §1

| Binder | Primary T cell activation assay IC50 [1] [nM] | OX40L neutralization/OX40-HEK Reporter IC50 (AVI-GST-His6-hOX40L) [nM] | Kd [2] [nM] | Kd [3] [nM] | EC50 [4] [nM] | Kd [5] [nM] | Kd [6] [nM] |
| --- | --- | --- | --- | --- | --- | --- | --- |
| B1 | 5.1 | 7.5 | 72.3 | 54.7 | 4.2 | 72.3 |  |
| B2 | 3.5 | 8.3 | 57.9 | 63.9 | 1.7 | 57.9 |  |
| B3 | 20.8 | 12.7 |  |  |  | 106 |  |
| B4 |  | > 161 |  |  |  | 68.5 | 68.5 |

Source: patent US20240262922A1 (Merck KGaA, published 2024)
